Source: the RNAGym collection of RNA variant scans (doi:10.7554/elife.90254)
Read counts are not given, so values of variants with three or more changes are uncertain.

B1: LINE1-mini (parent)
chain: GGCAGAGCUCAACACAGCGUGGCAAAGUGGCUGUGGCUAGACUGCC

Variants of: B1
Experiment: self-cleavage, relative activity (ratio to wild type); higher = more cleavage; in vitro, sequencing; the parent is a self-cleaving ribozyme
With GGCACAGCUCAACAGAGCGUAGCAAAGUGGCUGUGGCUAGACUGCC the self-cleavage was 0.02. For GGCACAGCUUAACACCGCGAGGCAAAGUGGCUGUGCCUAGACUGCU, the self-cleavage was 0.02. GGCACAGCUCAACAUAGCGCGGCAAAGUGGCUUUGGCUAGACUGCC showed a self-cleavage of 0.06. Work on GGCACAGCUCAACAUAGCGUGGCAAAGAUGCUGUGGCUACACUGCC yielded a self-cleavage of 0.08. With GGCACAGCUCAAGACAGCGUGCCUAAGUGGCUGUGGCUAGACUGCC the self-cleavage was 0.01. Work on GGCACAGCUAGACACAGCGUGGCAAAAUGGCUGUGGCUAGAAUGCA yielded a self-cleavage of 0. In the case of GGCACAGCUCAACAGAGUGUGGCAAAGUGGCUGAGGCUAGACUGCG, the self-cleavage is reported as 0. Variant GGCACAGCUGAAGACAGCGCGGCAAAGUGGUUGUGGCUAGACUGCC has a self-cleavage of 0.03. Variant GGCACAGCUCAAAACUGCGUGGCAAAGUGGCUUUGGCUAGACUGCC has a self-cleavage of 0.15. In the case of GGCACAGCUCAAAACAGCAUGGCAAAGUGGCUGUGGCUGGACUGCC, the self-cleavage is reported as 0.06. Variant GGCACAGCUCAAAACAGCGUGGCAAAGUGGUUGGGGUUAGACUGCC has a self-cleavage of 0.06. GGCACAGCUAAACACAGCUUGGCAAGUUGGCUGUGGCUAGACUGCC showed a self-cleavage of 0.05. GGCACAGCUCAAUACAGCGUGGCAAAGUGGCUGUGGCUAGCCUACC gave a self-cleavage of 0.09. In the case of GGCACAGCUCAACACAGAGUGGCAAAGUGGCCGUGGCUAGACCGCC, the self-cleavage is reported as 0. For GGCACAGCUCAACAAAGCGUGGCCAAGUGCCUGUGGCUAGACUGCC, the self-cleavage was 0.02. GGCACAGCUCAAGACAGCGUGGCAAAGUGGCUGUGGCUAGCCUGCC gave a self-cleavage of 0.05. GGCACAGCUGAACACAACGUGGCAACGUGUCUGUGGCUAGACUGCC showed a self-cleavage of 0.03. For GGCACAGCUUUACACAGCGUGGCAAAGGAGCUGUGGCUAGACUGCC, the self-cleavage was 0.04. GGCACAGCUCAAUACACCGUGGCAAAGUGGCUGUGGCUAGACUGCC gave a self-cleavage of 0.03. Variant GGCACAGCUCAAGAUAGCGUGGCGAAGUGGCUGUGGCUCGACAGCC has a self-cleavage of 0.01. With GGCACAGCUCAAUACAGCGUGGUAAAGCGACUGUGGCUAGACUGCC the self-cleavage was 0.06. GGCACAGCUCAACAGAGCGUGGCAAAGUGGCGCUGGCUAGACUGCC showed a self-cleavage of 0.03. Work on GGCACAGCUCAACACAGCGUGGAAAAGUGGCUGUGGCUUGAUUGCC yielded a self-cleavage of 0.02. Variant GGCACAGUUCAACACAGCGGGGCAAAGUCGCUGUGGCUAGACUGCC has a self-cleavage of 0.04. With GGCACAGCUCAACACAGUGUGGCAAAGUGGCUGUGCCUAGACUUCC the self-cleavage was 0.04. GGCACAGCUCAAAACAGCGUGGCAAAGUGGCUGUGGCUAGACUGGC gave a self-cleavage of 0.01. With GGCACAGCUGAACUCAGCGUGGCAAAGUGGCUGUGGCUAGACUGCC the self-cleavage was 0.03. Work on GGCACAGUUCAACACAGCGUGGCAAAGUGGCUGUGGCUAGAGUUCC yielded a self-cleavage of 0.1. Work on GGCACAGCUCAACACAGAGAGGCAAAGUGGCUGUGGCUAGACUGCC yielded a self-cleavage of 0.03. Variant GGCACAGCUAAACACAGCGUGGCCAAGUGGCUGUGGCUCGACUUCC has a self-cleavage of 0.01. Variant GGCACAGCUCAAUACAGCGUGGCCAAGUGGCUGUGGCUAGCCUGCC has a self-cleavage of 0.03. GGCACAGCUUAAAACAGCGUGGCAAAGUGGCUGUCCCUAGACUGCC gave a self-cleavage of 0.01. In the case of GGCACAGCUCAACACAGCGUGGCAAAGUGGGUGUGGCUAGACUGGC, the self-cleavage is reported as 0.04. Variant GGCACAGCUCAACAUAGCGUGGCAAAGUGUCUGUGGCUAGACUGCC has a self-cleavage of 0.04. Variant GGCACAGCUCAACACAGGGUGGCAAAGUUGCUGUGGCUAGACAGCC has a self-cleavage of 0.05. Variant GGCACAGCUCAAUACGGCGUGGCAAAGUGGCUGUGGCUAGACUGCC has a self-cleavage of 0. In the case of GGCACAGCUCAACACAGGGUGGCAAAGUGGCUGUUGCUAGACUGCC, the self-cleavage is reported as 0.04. In the case of GGCACAGCUCAAAACAGCGUGGCAAAGUGGCUGUGGCCAGACUGCC, the self-cleavage is reported as 0.02. Variant GGCACAGCUCAACACAGCGUGGCAAAGUGGCUGUGGCUAGACUGUU has a self-cleavage of 0.04. Work on GGCACAGUUAAACACAGCGUGGCAAAGUGGUUGUGGCUAGACUGCC yielded a self-cleavage of 0.04. Work on GGCACAGCUGAAAAUAGCGUGGCAAAGUGGUAGUGGCUAGACUGCC yielded a self-cleavage of 0.02. In the case of GGCACAGCUCAACACAGCGUGGGAUAGUGGCUGUAGCUAGACUGCC, the self-cleavage is reported as 0.04. In the case of GGCACAGCUCAACAUAGCGUGGCAAAGAGGCUGUGGCUAGACUGCC, the self-cleavage is reported as 0.1. With GGCACAGUUCAAAAUAGCUUGGCAAAGUGGCUGUGGCUAGACUGCG the self-cleavage was 0.1. With GGCACAGCUAAACAGAGCGUGGCAAAGUGGCUGUGGCUAGACUGCC the self-cleavage was 0.03. Work on GGCACAGCUCAACAGAGCGUGGCACAGUGGCUGUGGCUAGACUGUC yielded a self-cleavage of 0.01. GGCACAGCUCAACACAGCGUGGCAAAGUGGAUGUGGCUAGACUACC showed a self-cleavage of 0.04. Variant GGCACAGCUCAACAAAGCGGGGCAAAGUGGCUGUGGAUAGACUGCC has a self-cleavage of 0.03. For GGCACAGCUCAAAACCGCGUGGCGAAGUGGCUGUGGCUAGACUGCC, the self-cleavage was 0.02. Work on GGCACAGCUAAACACAGCGAGGAAAAGUGGCUGUGGCUAGGCUGCC yielded a self-cleavage of 0. For GGCACAGCUCAACACAGUGUGGCAAAGUGGCCGUGGUUAGACUGCC, the self-cleavage was 0.05. GGCACAGCUCAACAGAUCGUGGCAAAGGGGCGGUGGCUAGACUGCC showed a self-cleavage of 0.02. GGCACAGCUCAACACAGCGUGGGAAAGGGGCUGUGGCUAGACUGCC gave a self-cleavage of 0.03. Work on GGCACAGCUCAACAUAGCGUGGCCAAGUGGCUGUGGCUAGACUGCC yielded a self-cleavage of 0.08. GGCACAGCUCAACACAGCGUGGCAAAGUGGCUGUGGUUAGACUUCC showed a self-cleavage of 0.07. GGCACAGCUAAACGCAGCGUAGCAAAGUGGUUGUGGCUAGACUGCC showed a self-cleavage of 0.03.
